Test results from the supplement of paper PMC8728848.
Some of the results follow.

Assays:
Experiment in all cases: glycan array binding signal (z-score within array); higher = stronger binding
Conditions in all cases: glycan notation: IUPAC condensed, linker removed
[1] = target: Neu5Ac(a2-3)Gal(b1-4)GlcNAc(b1-2)[Neu5Ac(a2-3)Gal(b1-4)GlcNAc(b1-4)]Man(a1-3)[GlcNAc(b1-4)][Neu5Ac(a2-3)Gal(b1-4)GlcNAc(b1-4)Man(a1-6)]Man(b1-4)GlcNAc(b1-4)GlcNAc
In short: (§1)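 From the Consortium for Functional Glycomics database, 3228 arrays were curated, keeping only those whose protein sequence was available. Binding is given as a within-array Z-score averaged across arrays sharing a protein sequence and across linkers. Negative Z-scores can be read as non-binding.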

[2] = target: Neu5Ac(a2-3)Gal(b1-4)GlcNAc(b1-2)[Neu5Ac(a2-3)Gal(b1-4)GlcNAc(b1-6)]Man(a1-6)[Neu5Ac(a2-3)Gal(b1-4)GlcNAc(b1-2)Man(a1-3)]Man(b1-4)GlcNAc(b1-4)GlcNAc
In short: as §1

[3] = target: Neu5Ac(a2-3)Gal(b1-4)GlcNAc(b1-2)[Neu5Ac(a2-3)Gal(b1-4)GlcNAc(b1-6)]Man(a1-6)[Neu5Ac(a2-3)Gal(b1-4)GlcNAc(b1-2)Man(a1-3)][GlcNAc(b1-4)]Man(b1-4)GlcNAc(b1-4)GlcNAc
In short: as §1

[4] = target: Neu5Ac(a2-3)Gal(b1-4)GlcNAc(b1-3)Gal
In short: as §1

[5] = target: Neu5Ac(a2-3)Gal(b1-4)GlcNAc(b1-3)Gal(b1-3)GlcNAc
In short: as §1

[6] = target: Neu5Ac(a2-3)Gal(b1-4)GlcNAc(b1-3)Gal(b1-4)GlcNAc
In short: as §1

[7] = target: Neu5Ac(a2-3)Gal(b1-4)GlcNAc(b1-3)Gal(b1-4)GlcNAc(b1-2)Man(a1-3)[Neu5Ac(a2-3)Gal(b1-4)GlcNAc(b1-3)Gal(b1-4)GlcNAc(b1-2)Man(a1-6)]Man(b1-4)GlcNAc(b1-4)GlcNAc
In short: as §1

[8] = target: Neu5Ac(a2-3)Gal(b1-4)GlcNAc(b1-3)Gal(b1-4)GlcNAc(b1-3)Gal(b1-4)GlcNAc
In short: as §1

[9] = target: Neu5Ac(a2-3)Gal(b1-4)GlcNAc(b1-3)Gal(b1-4)GlcNAc(b1-3)Gal(b1-4)GlcNAc(b1-2)Man(a1-3)[Neu5Ac(a2-3)Gal(b1-4)GlcNAc(b1-3)Gal(b1-4)GlcNAc(b1-3)Gal(b1-4)GlcNAc(b1-2)Man(a1-6)]GalNAc
In short: as §1

[10] = target: Neu5Ac(a2-3)Gal(b1-4)GlcNAc(b1-3)Gal(b1-4)GlcNAc(b1-3)GalNAc
In short: as §1

[11] = target: Neu5Ac(a2-3)Gal(b1-4)GlcNAc(b1-3)Gal(b1-4)GlcNAc(b1-3)[Neu5Ac(a2-3)Gal(b1-4)GlcNAc(b1-3)Gal(b1-4)GlcNAc(b1-6)]GalNAc
In short: as §1

[12] = target: Neu5Ac(a2-3)Gal(b1-4)GlcNAc(b1-3)Gal(b1-4)GlcNAc(b1-6)[Gal(b1-3)]GalNAc
In short: as §1

[13] = target: Neu5Ac(a2-3)Gal(b1-4)GlcNAc(b1-3)Gal(b1-4)[Fuc(a1-3)]GlcNAc
In short: as §1

[14] = target: Neu5Ac(a2-3)Gal(b1-4)GlcNAc(b1-3)GalNAc
In short: as §1

[15] = target: Neu5Ac(a2-3)Gal(b1-4)GlcNAc(b1-3)[Neu5Ac(a2-3)Gal(b1-4)GlcNAc(b1-6)]GalNAc
In short: as §1

[16] = target: Neu5Ac(a2-3)Gal(b1-4)GlcNAc(b1-6)GalNAc
In short: as §1

[17] = target: Neu5Ac(a2-3)Gal(b1-4)GlcNAc(b1-6)[Gal(b1-3)]GalNAc
In short: as §1

[18] = target: Neu5Ac(a2-3)Gal(b1-4)GlcNAc(b1-6)[Neu5Ac(a2-3)Gal(b1-3)]GalNAc
In short: as §1

[19] = target: Neu5Ac(a2-3)Gal(b1-4)GlcNAc6S
In short: as §1

[20] = target: Neu5Ac(a2-3)Gal(b1-4)[Fuc(a1-3)]GlcNAc
In short: as §1

[21] = target: Neu5Ac(a2-3)Gal(b1-4)[Fuc(a1-3)]GlcNAc(b1-2)Man
In short: as §1

[22] = target: Neu5Ac(a2-3)Gal(b1-4)[Fuc(a1-3)]GlcNAc(b1-3)Gal
In short: as §1

[23] = target: Neu5Ac(a2-3)Gal(b1-4)[Fuc(a1-3)]GlcNAc(b1-3)Gal(b1-4)GlcNAc
In short: as §1

[24] = target: Neu5Ac(a2-3)Gal(b1-4)[Fuc(a1-3)]GlcNAc(b1-3)Gal(b1-4)[Fuc(a1-3)]GlcNAc(b1-3)Gal(b1-4)[Fuc(a1-3)]GlcNAc
In short: as §1

[25] = target: Neu5Ac(a2-3)Gal(b1-4)[Fuc(a1-3)]GlcNAc(b1-3)GalNAc
In short: as §1

[26] = target: Neu5Ac(a2-3)Gal(b1-4)[Fuc(a1-3)]GlcNAc(b1-6)[Gal(b1-3)]GalNAc
In short: as §1

[27] = target: Neu5Ac(a2-3)Gal(b1-4)[Fuc(a1-3)]GlcNAc(b1-6)[Neu5Ac(a2-3)Gal(b1-3)]GalNAc
In short: as §1

[28] = target: Neu5Ac(a2-3)Gal(b1-4)[Fuc(a1-3)]GlcNAc6S
In short: as §1

[29] = target: Neu5Ac(a2-3)Gal6S(b1-4)GlcNAc
In short: as §1

[30] = target: Neu5Ac(a2-3)Gal6S(b1-4)[Fuc(a1-3)]GlcNAc
In short: as §1

Neu5Ac(a2-3)GalNAc = target: Neu5Ac(a2-3)GalNAc
In short: as §1

[31] = target: Neu5Ac(a2-3)GalNAc(b1-4)GlcNAc
In short: as §1

[32] = target: Neu5Ac(a2-3)[GalNAc(b1-4)]Gal(b1-4)Glc
In short: as §1

[33] = target: Neu5Ac(a2-3)[GalNAc(b1-4)]Gal(b1-4)GlcNAc
In short: as §1

[34] = target: Neu5Ac(a2-3)[GalNAc(b1-4)]Gal(b1-4)GlcNAc(b1-3)GalNAc
In short: as §1

[35] = target: Neu5Ac(a2-3)[Neu5Ac(a2-6)]GalNAc
In short: as §1

Neu5Ac(a2-6)Gal = target: Neu5Ac(a2-6)Gal
In short: as §1

[36] = target: Neu5Ac(a2-6)Gal(b1-3)GlcNAc(b1-3)[Gal(b1-4)GlcNAc(b1-6)]Gal(b1-4)Glc
In short: as §1

Neu5Ac(a2-6)Gal(b1-4)Glc = target: Neu5Ac(a2-6)Gal(b1-4)Glc
In short: as §1

[37] = target: Neu5Ac(a2-6)Gal(b1-4)GlcNAc
In short: as §1

[38] = target: Neu5Ac(a2-6)Gal(b1-4)GlcNAc(b1-2)Man
In short: as §1

[39] = target: Neu5Ac(a2-6)Gal(b1-4)GlcNAc(b1-2)Man(a1-3)Man(b1-4)GlcNAc(b1-4)GlcNAc
In short: as §1

[40] = target: Neu5Ac(a2-6)Gal(b1-4)GlcNAc(b1-2)Man(a1-3)[Gal(b1-4)GlcNAc(b1-2)Man(a1-6)]Man(b1-4)GlcNAc(b1-4)GlcNAc
In short: as §1

[41] = target: Neu5Ac(a2-6)Gal(b1-4)GlcNAc(b1-2)Man(a1-3)[GlcNAc(b1-2)Man(a1-6)]Man(b1-4)GlcNAc(b1-4)GlcNAc
In short: as §1

[42] = target: Neu5Ac(a2-6)Gal(b1-4)GlcNAc(b1-2)Man(a1-3)[GlcNAc(b1-4)][Neu5Ac(a2-6)Gal(b1-4)GlcNAc(b1-2)Man(a1-6)]Man(b1-4)GlcNAc(b1-4)GlcNAc
In short: as §1

B1: FimA-N3 (Actinomyces oris) (protein)
chain: MHHHHHHSSGVDLGTENLYFQSNAGLQGAQFQLYKAKNAYANTCSNEKEGAPIAINGQTTLTTDAQGAIDIKGLFISDSIDGADRDNQVNAMERCYVLVETKAPAGYVLPAGNGAATPVKVKAGEETTDN
- glycan array binding signal (z-score) [1]: -0.431
- glycan array binding signal (z-score) [2]: -0.056
- glycan array binding signal (z-score) [3]: -0.261
- glycan array binding signal (z-score) [4]: -0.56
- glycan array binding signal (z-score) [5]: -0.142
- glycan array binding signal (z-score) [6]: -0.405
- glycan array binding signal (z-score) [7]: 0.001
- glycan array binding signal (z-score) [8]: -0.19
- glycan array binding signal (z-score) [9]: 0.894
- glycan array binding signal (z-score) [10]: -0.529
- glycan array binding signal (z-score) [11]: -0.023
- glycan array binding signal (z-score) [12]: 2.36
- glycan array binding signal (z-score) [13]: 0.29
- glycan array binding signal (z-score) [14]: -0.42
- glycan array binding signal (z-score) [15]: 0.13
- glycan array binding signal (z-score) [16]: -0.007
- glycan array binding signal (z-score) [17]: 0.025
- glycan array binding signal (z-score) [18]: -0.19
- glycan array binding signal (z-score) [19]: -0.458
- glycan array binding signal (z-score) [20]: -0.554
- glycan array binding signal (z-score) [21]: -0.202
- glycan array binding signal (z-score) [22]: -0.324
- glycan array binding signal (z-score) [23]: -0.321
- glycan array binding signal (z-score) [24]: -0.307
- glycan array binding signal (z-score) [25]: 0.165
- glycan array binding signal (z-score) [26]: 1.02
- glycan array binding signal (z-score) [27]: 0.009
- glycan array binding signal (z-score) [28]: -0.078
- glycan array binding signal (z-score) [29]: -0.303
- glycan array binding signal (z-score) [30]: -0.76
- glycan array binding signal (z-score) (Neu5Ac(a2-3)GalNAc): -0.257
- glycan array binding signal (z-score) [31]: -0.492
- glycan array binding signal (z-score) [32]: -0.272
- glycan array binding signal (z-score) [33]: -0.526
- glycan array binding signal (z-score) [34]: -0.212
- glycan array binding signal (z-score) [35]: 0.074
- glycan array binding signal (z-score) (Neu5Ac(a2-6)Gal): 0.344
- glycan array binding signal (z-score) [36]: -0.529
- glycan array binding signal (z-score) (Neu5Ac(a2-6)Gal(b1-4)Glc): -0.401
- glycan array binding signal (z-score) [37]: -0.211
- glycan array binding signal (z-score) [38]: -0.531
- glycan array binding signal (z-score) [39]: -0.045
- glycan array binding signal (z-score) [40]: -0.107
- glycan array binding signal (z-score) [41]: -0.619
- glycan array binding signal (z-score) [42]: -0.388
